Assay results: paper PMC10511709
Positions count from the first letter of the chain named. Numbers in names are those of the source. Where two headings read alike, the source gives them in different places. These are yes or no findings as the source states them, for the method shown. For some of these results: Binding seen in cells or lysates may run through a third protein. Some binding calls cover weakened binding; strength is not graded here. Tags and fused reporters may be left off the sequences shown. Values belong to the molecule of their own block, whether it stands above or below them.

Protein sequences, listed by entry. Tags and fused reporters are not part of them. Lines headed by an entry give the natural chain unless they say otherwise; changes in a name come on top.
UniProt P28188: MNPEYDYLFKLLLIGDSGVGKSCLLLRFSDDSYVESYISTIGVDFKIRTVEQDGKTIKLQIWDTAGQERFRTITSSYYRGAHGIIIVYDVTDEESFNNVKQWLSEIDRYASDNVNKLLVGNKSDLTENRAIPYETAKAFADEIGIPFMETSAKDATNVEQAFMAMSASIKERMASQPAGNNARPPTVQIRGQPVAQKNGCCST
UniProt Q9LS94: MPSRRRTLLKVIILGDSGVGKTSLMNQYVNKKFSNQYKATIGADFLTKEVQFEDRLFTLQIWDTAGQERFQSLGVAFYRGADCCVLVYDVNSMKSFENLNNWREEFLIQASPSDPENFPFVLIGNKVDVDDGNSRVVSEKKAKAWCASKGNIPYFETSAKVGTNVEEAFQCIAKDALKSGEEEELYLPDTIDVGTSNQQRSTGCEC
UniProt O04157: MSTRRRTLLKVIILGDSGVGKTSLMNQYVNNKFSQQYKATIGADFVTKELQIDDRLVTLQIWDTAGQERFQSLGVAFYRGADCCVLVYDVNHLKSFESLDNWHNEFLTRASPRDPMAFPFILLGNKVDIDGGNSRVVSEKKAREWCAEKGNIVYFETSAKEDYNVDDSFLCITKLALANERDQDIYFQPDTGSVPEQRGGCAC

Legend:
[1] = biological target: T1, NET4B, full length, yeast two-hybrid fusion (Arabidopsis thaliana) (UniProt Q84VY2); test: two-hybrid; one-on-one mating; pGBKT7 baits in AH109, pGADT7 preys in Y187; growth on SD -WLH + 2.5 mM 3AT at 30 °C for 5-7 days; empty vectors as controls
T1 sequence: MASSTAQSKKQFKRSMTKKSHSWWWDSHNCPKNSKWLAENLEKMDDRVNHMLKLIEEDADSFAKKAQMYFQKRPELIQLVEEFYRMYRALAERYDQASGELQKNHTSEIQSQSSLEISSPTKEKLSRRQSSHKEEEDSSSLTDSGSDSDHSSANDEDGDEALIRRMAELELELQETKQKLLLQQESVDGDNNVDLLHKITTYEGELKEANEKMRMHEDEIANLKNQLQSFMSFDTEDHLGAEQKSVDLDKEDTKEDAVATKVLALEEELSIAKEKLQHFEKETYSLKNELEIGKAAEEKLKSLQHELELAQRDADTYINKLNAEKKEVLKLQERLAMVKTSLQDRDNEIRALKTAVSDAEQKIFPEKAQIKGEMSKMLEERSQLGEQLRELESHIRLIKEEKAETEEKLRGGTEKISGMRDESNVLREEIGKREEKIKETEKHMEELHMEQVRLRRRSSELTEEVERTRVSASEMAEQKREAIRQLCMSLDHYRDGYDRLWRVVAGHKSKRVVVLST

[2] = biological target: T2, NET4A, full length, yeast two-hybrid fusion (Arabidopsis thaliana) (UniProt F4KEW8); test: as above
T2 sequence: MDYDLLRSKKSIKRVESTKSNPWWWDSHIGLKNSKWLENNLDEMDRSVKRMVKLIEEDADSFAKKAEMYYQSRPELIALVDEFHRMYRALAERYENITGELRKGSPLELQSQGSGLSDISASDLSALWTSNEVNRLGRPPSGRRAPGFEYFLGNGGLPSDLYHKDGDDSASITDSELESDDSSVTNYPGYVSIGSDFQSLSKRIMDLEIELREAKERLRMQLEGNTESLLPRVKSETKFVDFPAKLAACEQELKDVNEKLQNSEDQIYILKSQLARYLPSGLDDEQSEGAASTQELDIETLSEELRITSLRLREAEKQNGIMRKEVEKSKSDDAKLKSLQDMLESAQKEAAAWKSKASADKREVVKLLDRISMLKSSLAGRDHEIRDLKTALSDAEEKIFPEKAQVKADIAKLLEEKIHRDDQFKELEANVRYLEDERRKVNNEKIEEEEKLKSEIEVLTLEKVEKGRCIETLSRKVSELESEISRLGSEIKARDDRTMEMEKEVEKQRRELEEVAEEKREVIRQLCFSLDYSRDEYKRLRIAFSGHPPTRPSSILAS

[3] = biological target: T3, NET4A-GFP (Arabidopsis thaliana) (UniProt F4KEW8); test: co-IP; fusion proteins co-expressed in N. benthamiana leaves; GFP-Trap beads, 3 h at 4 °C; extraction buffer 50 mM Tris HCl pH 7.5, 50 mM NaCl, 1% IGEPAL; blots with GFP and RFP antibodies
T3 sequence: T2 sequence

[4] = biological target: T4, NET4B residues 464-511 (RABG3 binding domain), yeast two-hybrid bait (Arabidopsis thaliana) (UniProt Q84VY2); test: two-hybrid; one-on-one mating; pGBKT7 baits in AH109, pGADT7 preys in Y187; growth on SD -WLH + 2.5 mM 3AT at 30 °C for 5-7 days; empty vectors as controls
T4 sequence: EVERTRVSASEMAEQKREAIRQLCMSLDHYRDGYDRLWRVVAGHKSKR

[5] = biological target: T1, NET4B, full length, yeast two-hybrid fusion (Arabidopsis thaliana); test: as above; remark: listed apart in the source
[6] = biological target: T2, NET4A, full length, yeast two-hybrid fusion (Arabidopsis thaliana); test: as above; remark: listed apart in the source
[7] = biological target: T5, RABF2a, yeast two-hybrid bait (Arabidopsis thaliana) (UniProt P31582); test: as above
T5 sequence: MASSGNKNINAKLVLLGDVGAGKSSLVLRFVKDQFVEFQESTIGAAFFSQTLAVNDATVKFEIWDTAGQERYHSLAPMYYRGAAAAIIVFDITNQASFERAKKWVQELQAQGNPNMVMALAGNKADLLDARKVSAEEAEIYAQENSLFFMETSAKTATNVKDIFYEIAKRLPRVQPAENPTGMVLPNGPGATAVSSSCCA

[8] = biological target: T6, RABA5c, yeast two-hybrid bait (Arabidopsis thaliana) (UniProt P28187); test: as above
T6 sequence: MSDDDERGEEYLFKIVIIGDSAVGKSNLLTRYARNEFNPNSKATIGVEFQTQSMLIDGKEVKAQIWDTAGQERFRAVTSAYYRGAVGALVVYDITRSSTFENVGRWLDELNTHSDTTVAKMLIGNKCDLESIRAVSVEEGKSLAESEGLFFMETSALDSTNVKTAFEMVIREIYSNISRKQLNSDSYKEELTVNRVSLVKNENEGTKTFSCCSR

[9] = biological target: RABD2a, yeast two-hybrid bait (Arabidopsis thaliana) (UniProt P28188); test: as above
[10] = biological target: T3, NET4A-GFP (Arabidopsis thaliana); test: FRET or BRET; FRET-FLIM; donor NET4A-GFP, acceptor NET4B-RFP, co-expressed in N. benthamiana leaf epidermal cells; reduction of donor lifetime
[11] = biological target: T3, NET4A-GFP (Arabidopsis thaliana); test: co-IP; fusion proteins co-expressed in N. benthamiana leaves; GFP-Trap beads, 3 h at 4 °C; extraction buffer 50 mM Tris HCl pH 7.5, 50 mM NaCl, 1% IGEPAL; blots with GFP and RFP antibodies; remark: listed apart in the source

Molecule: DN-RABG3f (dominant negative, T22N), yeast two-hybrid fusion (from UniProt Q9LS94 1-206)
binding [1]: no binding
binding [2]: no binding

Molecule: CA-RABG3f (constitutive active, Q67L), yeast two-hybrid fusion (from UniProt Q9LS94 1-206)
binding [1]: binds
binding [2]: binds

B1: CA-RABG3a (constitutive active, Q67L), yeast two-hybrid fusion (protein, UniProt Q948K8 1-206)
chain: MATRRRTLLKVIVLGDSGVGKTSLMNQYVHKKFSMQYKATIGADFVTKELQIGEKLVTLQIWDTAGLERFQSLGAAFYRGADCCALVYDVNVLRSFDNLETWHEEFLKQASPSDPKTFPFIVLGNKIDVDGGSSRVVSDKKAADWCASNGNIPYFETSAKDDFNVDEAFLTIAKTALANEHEQDIYFQGIPDAVTENEPKGGGCAC
binding [4]: binds
binding [5]: binds
binding [6]: binds

B2: NET4A, full length, yeast two-hybrid fusion (protein, UniProt F4KEW8 1-558)
chain: T2 sequence
binding [7]: no binding
binding [8]: no binding
binding [9]: no binding
binding [6]: binds

B6: DN-RABG3a (dominant negative, T22N), yeast two-hybrid fusion (protein, UniProt Q948K8 1-206)
chain: B1 chain with T22N, L67Q
binding [5]: no binding
binding [6]: no binding

The remaining lines, values ahead:

binding [1]: binds
binding [2]: binds
Molecule: RABG3f, wild type, yeast two-hybrid fusion (from UniProt Q9LS94 1-206)

binding [3]: binds
Molecule: RFP-RABG3b, wild type (from UniProt O04157 1-203)

binding [7]: no binding
binding [8]: no binding
binding [9]: no binding
binding [5]: binds
binding [6]: binds
B3: NET4B, full length, yeast two-hybrid fusion (protein, UniProt Q84VY2 1-517)
chain: T1 sequence

binding [10]: binds
binding [11]: binds
B4: NET4B-RFP (protein, UniProt Q84VY2 1-517)
chain: T1 sequence

binding [5]: binds
binding [6]: binds
B5: RABG3a, wild type, yeast two-hybrid fusion (protein, UniProt Q948K8 1-206)
chain: B1 chain with L67Q
